Assay results taken from patent publication US20250361279A1 (Hoffmann-La Roche, published 2025).

Assays:
[1] = biological target: T1, IL-7 receptor (IL-7R alpha chain and common gamma chain) on human T cells (human, UniProt P16871 21-459; P31785 23-369); assay: flow cytometry, fresh PBMCs, bystander (PD-1- TCF-1-) CD8 T cells
T1 construct: whole, on cells; Endogenous receptor on CD4 and CD8 T cells of healthy donors; also called IL-7Rα; CD127
T1 sequence (looked up) 1: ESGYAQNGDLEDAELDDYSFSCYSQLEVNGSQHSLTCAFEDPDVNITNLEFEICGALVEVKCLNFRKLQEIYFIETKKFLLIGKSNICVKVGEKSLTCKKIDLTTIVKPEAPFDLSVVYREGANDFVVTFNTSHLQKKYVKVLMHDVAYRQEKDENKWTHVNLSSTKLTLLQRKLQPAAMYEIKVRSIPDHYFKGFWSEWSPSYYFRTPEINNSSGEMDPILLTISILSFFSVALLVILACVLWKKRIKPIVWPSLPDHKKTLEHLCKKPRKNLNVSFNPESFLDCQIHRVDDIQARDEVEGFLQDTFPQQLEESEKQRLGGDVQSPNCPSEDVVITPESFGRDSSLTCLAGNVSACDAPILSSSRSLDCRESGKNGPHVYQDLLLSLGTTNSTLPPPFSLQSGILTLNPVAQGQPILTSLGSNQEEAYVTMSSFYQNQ
T1 sequence (looked up) 2: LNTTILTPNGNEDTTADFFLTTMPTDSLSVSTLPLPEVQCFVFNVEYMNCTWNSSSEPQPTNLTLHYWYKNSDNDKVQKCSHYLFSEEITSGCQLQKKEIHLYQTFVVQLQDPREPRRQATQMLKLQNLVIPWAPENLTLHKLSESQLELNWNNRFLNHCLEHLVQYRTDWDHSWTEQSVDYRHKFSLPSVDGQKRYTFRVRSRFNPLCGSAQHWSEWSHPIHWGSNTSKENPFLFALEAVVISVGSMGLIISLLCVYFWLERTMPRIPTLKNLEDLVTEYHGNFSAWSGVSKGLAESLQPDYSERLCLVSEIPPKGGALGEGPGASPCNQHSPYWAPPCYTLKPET

[2] = biological target: T1, IL-7 receptor (IL-7R alpha chain and …); assay: flow cytometry, fresh PBMCs, bystander (PD-1- TCF-1-) CD4 T cells
[3] = biological target: human PD-1 on activated CD4 T cells (human, UniProt Q15116 25-288); assay: cell-based or functional assay
[4] = biological target: T1, IL-7 receptor (IL-7R alpha chain and …); assay: cell-based or functional assay
[5] = biological target: T2, human huPD1-ECD_Fc (P1AD9704) (human, UniProt Q15116 partial chain); assay: SPR Biacore T200, sample captured by anti-PGLALA, huPD1-ECD-Fc injected; sample stressed 2 w/pH 6.0, +40°C
T2 construct: extracellular domain; In-house reagent; not shown: Fc part

[6] = biological target: T3, human IL7Rα-IL2Rg-Fc (P1AF4984) (human, UniProt P16871 21-239; P31785 23-262, limits assumed); assay: SPR Biacore T200, sample captured by anti-PGLALA, IL7Ra-IL2Rg-Fc injected; sample 2 w/pH 6.0, -80°C (reference)
T3 construct: In-house heterodimeric Fc fusion; also called IL7Ra-IL2Rg-Fc; human IL7Ralpha-IL2Rgamma-Fc heterodimer; not shown: Fc part
T3 sequence (looked up) 1: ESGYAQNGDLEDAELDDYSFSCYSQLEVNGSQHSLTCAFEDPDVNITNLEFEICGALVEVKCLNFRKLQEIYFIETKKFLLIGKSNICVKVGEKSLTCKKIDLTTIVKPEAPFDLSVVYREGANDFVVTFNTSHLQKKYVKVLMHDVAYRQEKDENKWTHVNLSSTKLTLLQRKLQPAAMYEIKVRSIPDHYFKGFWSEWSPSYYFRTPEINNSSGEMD
T3 sequence (looked up) 2: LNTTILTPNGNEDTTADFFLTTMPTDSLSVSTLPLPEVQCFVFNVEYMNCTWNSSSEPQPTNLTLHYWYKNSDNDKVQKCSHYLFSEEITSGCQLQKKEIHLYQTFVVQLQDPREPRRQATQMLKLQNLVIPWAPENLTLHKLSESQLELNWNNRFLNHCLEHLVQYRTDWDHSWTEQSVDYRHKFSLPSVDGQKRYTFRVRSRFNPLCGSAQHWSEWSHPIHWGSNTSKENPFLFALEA

[7] = biological target: T1, IL-7 receptor (IL-7R alpha chain and …); assay: flow cytometry, fresh PBMCs, naive (TCF-1+ PD-1-) CD4 T cells; design: unit not given beside the values

B1: P1AI5587 (PD1-IL7v2.6, fully glycosylated; de-risked PD1 binder FV020519; IL7 E13K, G85E; (G2SG2)3 linker) (other)
light: DIVMTQSPDSLAVSLGERATINCKASESVDTSDNSFIHWYQQKPGQSPKLLIYRASTLESGVPDRFSGSGSGTDFTLTISSLQAEDVAVYYCQQNYDVPWTFGQGTKVEIKRTVAAPSVFIFPPSDEQLKSGTASVVCLLNNFYPREAKVQWKVDNALQSGNSQESVTEQDSKDSTYSLSSTLTLSKADYEKHKVYACEVTHQGLSSPVTKSFNRGEC
heavy 1: EVQLLESGGGLVQPGGSLRLSCAASGFSFSSYTMSWVRQAPGKGLEWVSAISGGGRDIYYPDSVKGRFTISRDNSKNTLYLQMNSLRAEDTAVYYCVLLTGRVYFALDSWGQGTLVTVSSASTKGPSVFPLAPSSKSTSGGTAALGCLVKDYFPEPVTVSWNSGALTSGVHTFPAVLQSSGLYSLSSVVTVPSSSLGTQTYICNVNHKPSNTKVDKKVEPKSCDKTHTCPPCPAPEAAGGPSVFLFPPKPKDTLMISRTPEVTCVVVDVSHEDPEVKFNWYVDGVEVHNAKTKPREEQYNSTYRVVSVLTVLHQDWLNGKEYKCKVSNKALGAPIEKTISKAKGQPREPQVCTLPPSRDELTKNQVSLSCAVKGFYPSDIAVEWESNGQPENNYKTTPPVLDSDGSFFLVSKLTVDKSRWQQGNVFSCSVMHEALHNHYTQKSLSLSPG
heavy 2: EVQLLESGGGLVQPGGSLRLSCAASGFSFSSYTMSWVRQAPGKGLEWVSAISGGGRDIYYPDSVKGRFTISRDNSKNTLYLQMNSLRAEDTAVYYCVLLTGRVYFALDSWGQGTLVTVSSASTKGPSVFPLAPSSKSTSGGTAALGCLVKDYFPEPVTVSWNSGALTSGVHTFPAVLQSSGLYSLSSVVTVPSSSLGTQTYICNVNHKPSNTKVDKKV[sequence of human IgG1 Fc with changes omitted]GGSGGGGSGGGGSGGDCDIEGKDGKQYKSVLMVSIDQLLDSMKEIGSNCLNNEFNFFKRHICDANKEGMFLFRAARKLRQFLKMNSTGDFDLHLLKVSEETTILLNCTGQVKGRKPAALGEAQPTKSLEENKSLKEQKKLNDLCFLKRLLQEIKTCWNKILMGTKEH
notes: Immunoconjugate: anti-PD-1 IgG1 (FV020519), knob-into-hole, PGLALA; IL-7 variant fused to the C-terminus of the knob heavy chain; Several batches of the same construct were tested; the batch is named in the rows; also called P1AI5587-007 (transient); P1AI5587-270 (transient)
**Q.** With B1 as the binder, how does the “fold reduction in binding compared to P1AF7303” value [1] read?
**A.** Its value is 6.53 fold.

**Q.** What about the “fold reduction in binding compared to P1AF7303” value [2] of the same binder?
**A.** Its value is 29.7 fold.

**Q.** What about the “Cis-delivery: fold increase in EC50, EC50 [with PD1bl]/EC50 [no PD1bl] (batch P1AI5587-007)” value [3] of the same binder?
**A.** The value was 19.5 fold.

**Q.** And the “Potency reduction to PD1-IL7wt: EC50 (PD1+)/EC50 (PD1-IL7wt) (batch P1AI5587-007)” value [4]?
**A.** The value was 5.8 fold.

**Q.** And the “Relative Active Concentration (RAC), binding relative to the non-stressed sample” value [5]?
**A.** Its value is 108%.

**Q.** And the “Relative Active Concentration (RAC), binding relative to the non-stressed sample” value [6]?
**A.** The value was 100%.

**Q.** What about the “AUC of dose-response binding (frequency of anti-PGLALA+ cells)” value [7] of the same binder?
**A.** Its value is 8.
